# From the supplement of paper PMC11348887
# Counter-ions that a name gives are not always drawn. The list shows a part of the results. Rule as the data show it: active = -2 or less and inactive = the rest. Most values come without repeats; read them as rough.
# Test system: hPSC-derived cortical neurons (WA09)
# Assay: nuclei number (viability) z-score; higher = more surviving cells
# Conditions: 5 µM; treatment: days 7-14 after plating, readout day 21
# 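Also: nuclei counted from DAPI counterstain by automated high-content image analysis, four fields per well at ×20 in 384-well plates, with sequential b-score then z-score normalization.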
row,SMILES,nuclei number (z-score)
1,C[C@@H]1O[C@@H](O[C@H]2C[C@@H](O)[C@]3(CO)[C@H]4[C@H](O)C[C@]5(C)[C@@H](C6=CC(=O)OC6)CC[C@]5(O)[C@@H]4CC[C@]3(O)C2)[C@H](O)[C@H](O)[C@H]1O [Ouabain],active: -5.81
2,CCN(C)C(=O)Oc1cccc([C@H](C)N(C)C)c1 [Rivastigmine],inactive: -0.351
3,CCN(C)C(=O)Oc1cccc([C@H](C)N(C)C)c1 [Rivastigmine Tartrate],inactive: 0.359
4,CCC1(c2ccc(N)cc2)CCC(=O)NC1=O (configuration not stated) [Aminoglutethimide],inactive: 0.461
5,C[N+]1(C)[C@@H]2C[C@@H](OC(=O)[C@H](CO)c3ccccc3)C[C@H]1[C@@H]1O[C@@H]12 [Methscopolamine],inactive: 1.81
6,C[C@]12CC[C@H](O)C[C@@H]1CC[C@@H]1[C@@H]2CC[C@]2(C)C(=O)CC[C@@H]12 [Epiandrosterone],inactive: -0.374
7,CN(C)C(=O)Oc1cc(OC(=O)N(C)C)cc(C(O)CNC(C)(C)C)c1 (configuration not stated) [Bambuterol HCl],inactive: -0.00597
8,Oc1cc(Cl)ccc1Oc1ccc(Cl)cc1Cl [Triclosan],inactive: -0.391
9,C[C@]12N[C@H](Cc3ccccc31)c1ccccc12 [MK-801 (Dizocilpine)],inactive: 2.1
10,CC(=O)Nc1ccc(OC[C@](C)(O)C(=O)Nc2ccc([N+](=O)[O-])c(C(F)(F)F)c2)cc1 [Andarine],inactive: 1.16
11,C[C@](O)(COc1ccc(C#N)cc1)C(=O)Nc1ccc(C#N)c(C(F)(F)F)c1,inactive: 0.998
12,CNCC(=O)c1ccc(O)c(O)c1 [Adrenalone HCl],inactive: 1.18
13,CC(C)N(CCNC(=O)CN1CCCC1=O)C(C)C [Pramiracetam],inactive: 1.29
14,COC(=O)C1=CCCN(C)C1 [Arecoline],inactive: 0.794
15,COc1cc2c(cc1OC)[C@@]13CCN4CC5=CCO[C@H]6CC(=O)N2[C@H]1[C@H]6[C@H]5C[C@H]43 [Brucine sulfate salt hydrate],inactive: -1.65
16,C[C@]12CC[C@H]3[C@@H](CC[C@@]45O[C@@H]4C(O)=C(C#N)C[C@]35C)[C@@H]1CC[C@@H]2O [Trilostane],inactive: -0.0494
17,COc1ccc2c(c1)/C(=C/c1cnc[nH]1)C(=O)N2,inactive: -0.121
18,COc1ccc(C[C@H]2NC[C@H](O)[C@H]2OC(C)=O)cc1 [Anisomycin],active: -5.26
19,CCC(COC(=O)c1cc(OC)c(OC)c(OC)c1)(c1ccccc1)N(C)C (configuration not stated) [Trimebutine],inactive: 0.619
20,C/C=C(\C)C(=O)N[C@@H](c1ccccc1)[C@@H](O)C(=O)O[C@H]1C[C@@]2(O)[C@@H](OC(=O)c3ccccc3)[C@@H]3[C@]4(OC(C)=O)CO[C@@H]4C[C@H](O)[C@@]3(C)C(=O)[C@H](OC(C)=O)C(=C1C)C2(C)C [Cephalomannine],inactive: -0.997
21,NCCc1c[nH]c2ccc(O)cc12 [Serotonin HCl],inactive: 0.00834
22,C[C@@H]1CC[C@H]2[C@@H](C)C(=O)O[C@@H]3O[C@@]4(C)CC[C@@H]1[C@]32OO4 [Artemisinin],inactive: 0.971
23,CCC1(c2cccc(O)c2)CCCCN(C)C1 (configuration not stated) [Meptazinol HCl],inactive: -0.0265

row,SMILES,nuclei number (z-score)
1,Cc1c(Cl)c(OCC(=O)N2CCN(C)CC2)nc2sc(C(=O)NC3CC3)c(N)c12,inactive: 1.35
2,C#C[C@]1(O)C=C[C@H]2[C@@H]3CCC4=CC(=O)CC[C@@H]4[C@H]3CC[C@@]21CC [Gestodene],inactive: -0.191
3,NCC(=O)O.[C-]#[O+].[C-]#[O+].[C-]#[O+].[Cl][Ru],inactive: 1.63
4,Cc1cccc([C@H](C)c2c[nH]cn2)c1C [Dexmedetomidine],inactive: 0.145
5,Cc1cccc([C@H](C)c2c[nH]cn2)c1C [Dexmedetomidine HCl],inactive: 0.0087
6,"OCC(Br)(Br)Br [2,2,2-Tribromoethanol]",inactive: -0.244
7,C[C@@]12N[C@@H](Cc3ccccc31)c1ccccc12 [(-)-MK 801 Maleate],inactive: -0.0489
8,CC(=O)OC12COC1CC(O)C1(C)C(=O)C(O)C3=C(C)C(O)CC(O)(C(OC(=O)c4ccccc4)C21)C3(C)C (configuration not stated) [10-Deacetylbaccatin-III],inactive: -0.256
9,O=P1(NCCCl)OCCCN1CCCl (configuration not stated) [Ifosfamide],inactive: -0.185
10,NC(=O)CN1CCCC1=O [Piracetam],inactive: 0.0558
11,CN(CC[C@H](N)CC(=O)N[C@@H]1C=C[C@@H](n2ccc(N)nc2=O)O[C@H]1C(=O)O)C(=N)N [Blasticidin S HCl],active: -6.86
12,O=C(Oc1ccc([N+](=O)[O-])cc1)N1CCC(C(O)(c2ccc3c(c2)OCO3)c2ccc3c(c2)OCO3)CC1,inactive: 0.579
13,COc1cc2c(cc1OC)C1CC(=O)C(CC(C)C)CN1CC2 (configuration not stated) [Tetrabenazine (Xenazine)],inactive: 0.841
14,O=C1CCC[C@@H]2[C@H]3CCCN4CCC[C@@H](CN12)[C@@H]34 [(+)-Matrine],inactive: 0.773
15,Cc1cccc(C)c1NC1=NCCCS1 [Xylazine HCl],inactive: -0.312
16,O=C(O[C@H]1C[N+]2(CCCOc3ccccc3)CCC1CC2)C(O)(c1cccs1)c1cccs1 [Aclidinium Bromide],inactive: -0.497
17,CN[C@@H]1C[C@H]2O[C@@](C)([C@@H]1OC)n1c3ccccc3c3c4c(c5c6ccccc6n2c5c31)C(=O)NC4 [Staurosporine],active: -3.88
18,CC[C@@H]1/C=C/C=C/C[C@H](C)[C@H](O)[C@](C)(O)C(=O)[C@H](C)[C@@H](O)[C@H](C)C(=O)[C@H](C)[C@@H](O)[C@H](C)/C=C/C(=O)O[C@H]2[C@@H](C)[C@@H](CC1)O[C@@]1(CC[C@@H](C)[C@@H](C[C@H](C)O)O1)[C@@H]2C [Oligomycin A],active: -3.16
19,Cc1cc(SCc2sc(-c3ccc(C(F)(F)F)c(F)c3)nc2C)ccc1OCC(=O)O,inactive: -0.15
20,CC(C)(C)[C@]1(O)CC2OC(=O)CC23C(=O)OC2OC(=O)[C@H](O)C231 (some centres not stated) [Bilobalide],inactive: -0.3
21,C/C(=C\c1csc(C)n1)[C@@H]1C[C@@H]2O[C@]2(C)CCC[C@H](C)[C@H](O)[C@@H](C)C(=O)C(C)(C)[C@@H](O)CC(=O)O1 [Epothilone B (EPO906_ Patupilone)],inactive: 1.34
22,C=CC[C@]1(O)CC[C@H]2[C@@H]3CCC4=CC(=O)CCC4=C3C=C[C@@]21C [Altrenogest],inactive: 0.0917
23,COC[C@H]1OC(=O)c2coc3c2[C@@]1(C)C1=C(C3=O)[C@@H]2CCC(=O)[C@@]2(C)C[C@H]1OC(C)=O [Wortmannin],inactive: -1.01

row,SMILES,nuclei number (z-score)
1,Cc1cccc(C(C)c2c[nH]cn2)c1C (configuration not stated) [Medetomidine HCl],inactive: -0.109
2,C=C[C@H]1CN2CC[C@H]1C[C@H]2[C@H](O)c1ccnc2ccccc12 [Cinchonidine],inactive: -0.281
3,COc1ccc2c(c1)[C@]13CCCC[C@@H]1[C@H](C2)N(C)CC3 [Dextromethorphan hydrobromide hydrate],inactive: 0.67
4,CN1[C@@H]2CC(O)C[C@H]1[C@@H]1O[C@@H]12 (some centres not stated) [Scopine],inactive: 0.418
5,CC1(C)CC(O)CC(C)(C)N1[O] [Tempol],inactive: 0.829
6,O=S(=O)(CC1CS1)c1ccc(Oc2ccccc2)cc1 (configuration not stated),inactive: 0.535
7,CC(=O)OC(C)(C)/C=C/C(=O)[C@](C)(O)[C@H]1[C@H](O)C[C@@]2(C)[C@@H]3CC=C4[C@H](C[C@H](O)C(=O)C4(C)C)[C@]3(C)C(=O)C[C@]12C [Cucurbitacin B],active: -5.91
8,O=c1[nH]c2ccccc2n1CCCN1CCC(n2c(=O)[nH]c3cc(Cl)ccc32)CC1 [Domperidone],inactive: -0.0897
9,c1cc2c(cc1[C@H]1OC[C@H]3[C@@H]1CO[C@@H]3c1ccc3c(c1)OCO3)OCO2 [Sesamin],inactive: 0.319
10,CC[C@H]1CN2CC[C@H]1C[C@@H]2[C@@H](O)c1ccnc2ccc(OC)cc12 [Hydroquinidine],inactive: -0.486
11,COc1ccc(CN2CCNCC2)c(OC)c1OC [Trimetazidine dihydrochloride],inactive: -0.346
12,Cc1cc(O)ccc1Cl [Chlorocresol],inactive: 3.97
13,NCCc1ccc(S(=O)(=O)F)cc1,inactive: 2.54
14,Fc1cc(F)c2c(c1)[C@H]1C=CC[C@H]1C(c1cccnc1)N2 (some centres not stated) [Golgicide A],active: -3.51
15,CN1[C@@H]2CC[C@H]1C[C@@H](OC(=O)[C@H](CO)c1ccccc1)C2 [Hyoscyamine],active: -7.75
16,Nc1nc(N)nc(NC2CC2)n1 [Cyromazine],inactive: -0.0925
17,N=C(N)NN [Aminoguanidine hydrochloride],inactive: 0.99
18,O=[N+]([O-])/C=C/c1ccc2c(c1)OCO2 [MNS (3_4-Methylenedioxy-_-nitrostyrene_ MDBN)],inactive: -0.33
19,CC(C)N(CCC(C(N)=O)(c1ccccc1)c1ccccn1)C(C)C (configuration not stated) [Disopyramide Phosphate],inactive: 1.77
20,O=[N+]([O-])O[C@@H]1CO[C@H]2[C@@H]1OC[C@@H]2O [Isosorbide Mononitrate],inactive: 0.221
21,C[N+](C)(C)CCCCCCCCCC[N+](C)(C)C [Decamethonium Bromide],inactive: -0.0114
